Assay results published in patent US11547761B1, “Antibody adjuvant conjugates” (The Board of Trustees of the Leland Stanford Junior …, priority 2016, dated 2023).

Experiments:
[1] = test system: human APCs (myeloid cells); test: APC-tumor co-culture / myeloid cell stimulation, surface markers by flow cytometry; type: cell-based; conditions: 18 hours of stimulation; compared with the corresponding unconjugated antibody unless the value names another comparator
Excerpt: Human antigen presenting cells (APCs) were negatively selected from human peripheral blood mononuclear cells obtained from healthy blood donors (Stanford Blood Center) by density gradient centrifugation using a RosetteSep Human Monocyte Enrichment Cocktail (Stem Cell Technologies) containing monoclonal antibodies against CD2, CD3, CD8, CD19, CD56, CD66b and CD235a. Immature APCs were subsequently purified to >97% purity via negative selection using an EasySep Human Monocyte Enrichment Kit without CD16 depletion containing monoclonal antibodies against CD2, CD3, CD19, CD20, CD56, CD66b, CD123 and CD235a.
Tumor cells were resuspended in PBS with 0.1% fetal bovine serum (FBS) at 1 to 10×10^6 cells/mL. Cells were subsequently incubated with 2 μM CFSE to yield a final concentration of 1 μM. The reaction was ended after 2 minutes via the addition of 10 mL complete medium with 10% FBS and washed once with complete medium. Cells were either fixed in 2% paraformaldehyde and washed three times with PBS or left unfixed prior to freezing the cells in 10% DMSO, 20% FBS and 70% medium.
2×10^5 APCs were incubated with or without 6.5×10^5 autologous or allogeneic CFSE-labeled tumor cells in 96-well plates (Corning) containing IMDM medium (Gibco) supplemented with 10% fetal bovine serum, 100 U/mL penicillin, 100 μg/mL streptomycin, 2 mM L-glutamine, sodium pyruvate, non-essential amino acids, 50 μM 2-ME and, where indicated, various concentrations of anti-tumor antibody and the indicated adjuvants. Cells and cell-free supernatants were analyzed after 18 hours via flow cytometry.
Human antigen presenting cells (APCs) were negatively selected from human peripheral blood mononuclear cells obtained from healthy blood donors (Stanford Blood Center) by density gradient centrifugation using a RosetteSep Human Monocyte Enrichment Cocktail (Stem Cell Technologies) containing monoclonal antibodies against […]. Immature APCs were subsequently purified to >97% purity via negative selection using an EasySep Human Monocyte Enrichment Kit without CD16 depletion containing monoclonal antibodies against CD14, CD16, CD40, CD86, CD123, and HLA-DR.
2×10^5 APCs were incubated with or without 6.5×10^5 autologous or allogeneic CFSE-labeled tumor cells in 96-well plates (Corning) containing IMDM medium (Gibco) supplemented with 10% fetal bovine serum, 100 U/mL penicillin, 100 μg/mL streptomycin, 2 mM L-glutamine, sodium pyruvate, non-essential amino acids, 50 μM 2-ME and, where indicated, various concentrations of antibody. Cells and cell-free supernatants were analyzed after 18 hours via flow cytometry.
2×10^5 APCs were incubated with or without 6.5×10^5 allogeneic CFSE-labeled tumor cells in 96-well plates (Corning) containing IMDM medium (Gibco) supplemented with 10% fetal bovine serum, 100 U/mL penicillin, 100 μg/mL streptomycin, 2 mM L-glutamine, sodium pyruvate, non-essential amino acids and, where indicated, various concentrations of unconjugated CD20 antibody, and immunoconjugates of the invention were prepared according to the examples above. Cells and cell-free supernatants were analyzed after 18 hours via flow cytometry or ELISA.

[2] = test system: human APCs (myeloid cells); test: Cytokine secretion from human APCs / myeloid cells (cell free supernatants); type: cell-based
Method: After 18 hours, cell free supernatants were analyzed for cytokine secretion via cytokine bead arrays; n=3. P-values≤0.05 depicted by *, P-values≤0.01 depicted by **, P-values≤0.001 depicted by ***, P-values≤0.0001 depicted by ****.
2×10^5 APCs were incubated with or without 6.5×10^5 autologous or allogeneic CFSE-labeled tumor cells in 96-well plates (Corning) containing IMDM medium (Gibco) supplemented with 10% fetal bovine serum, 100 U/mL penicillin, 100 μg/mL streptomycin, 2 mM L-glutamine, sodium pyruvate, non-essential amino acids, 50 μM 2-ME and, where indicated, various concentrations of anti-tumor antibody and the indicated adjuvants. […]
While the expression of T cell stimulatory molecules such as CD40, CD86 and HLA-DR is necessary for effective T cell activation, APCs also influence the nature of the ensuing immune response through the secretion of cytokines. Therefore, the capacity of immunoconjugates to elicit cytokine secretion in human APCs following stimulation was investigated as described above.
The capacity of these immunoconjugates to elicit cytokine secretion in human APCs following stimulation was investigated as described in Example 3 above.
2×10^5 APCs were incubated with or without 6.5×10^5 allogeneic CFSE-labeled tumor cells in 96-well plates (Corning) containing IMDM medium (Gibco) supplemented with 10% fetal bovine serum, 100 U/mL penicillin, 100 μg/mL streptomycin, 2 mM L-glutamine, sodium pyruvate, non-essential amino acids and, where indicated, various concentrations of unconjugated CD20 antibody, and immunoconjugates of the invention were prepared according to the examples above. […]

[3] = 18 hours of stimulation, compared to equimolar unconjugated antibody unless the value names another comparator
[4] = 36 hours of stimulation, compared to equimolar unconjugated antibody

B1: Bevacizumab Boltbody (conjugate, chains of the INN, looked up)
heavy: EVQLVESGGGLVQPGGSLRLSCAASGYTFTNYGMNWVRQAPGKGLEWVGWINTYTGEPTYAADFKRRFTFSLDTSKSTAYLQMNSLRAEDTAVYYCAKYPHYYGSSHWYFDVWGQGTLVTVSS[human IgG1 constant region cut from this listing]
light: DIQMTQSPSSLSASVGDRVTITCSASQDISNYLNWYQQKPGKAPKVLIYFTSSLHSGVPSRFSGSGSGTDFTLTISSLQPEDFATYYCQQYSTVPWTFGQGTKVEIKRTVAAPSVFIFPPSDEQLKSGTASVVCLLNNFYPREAKVQWKVDNALQSGNSQESVTEQDSKDSTYSLSSTLTLSKADYEKHKVYACEVTHQGLSSPVTKSFNRGEC
modifications: adjuvant conjugate
superior: CD14 downregulation on myeloid cells [1] | CD16 downregulation on myeloid cells [1] | CD40 upregulation on myeloid cells [1] | CD86 upregulation on myeloid cells [1] | CD123 upregulation on myeloid cells [1] | IL-1β secretion from myeloid cells [2, 3] | TNFα secretion from myeloid cells [2, 3] | IL-1β secretion from myeloid cells [2, 4] | TNFα secretion from myeloid cells [2, 4]
